Reference: the supplement of paper PMC8728848
The list shows a part of the results.

Columns and labels:
Assay in all cases: glycan array binding signal (z-score within array); higher = stronger binding
Conditions in all cases: glycan notation: IUPAC condensed, linker removed
[1] = molecular target: Neu5Ac(a2-3)Gal(b1-3)GlcNAc(b1-3)GalNAc
Method in brief: (§1)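 The Consortium for Functional Glycomics database supplied 3228 glycan arrays, of which those lacking an available protein sequence were dropped. The binding signal, a within-array Z-score, was averaged across arrays of the same protein sequence and across linkers. Negative scores can be read as non-binding.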

[2] = molecular target: Neu5Ac(a2-3)Gal(b1-3)GlcNAc(b1-6)GalNAc
Method in brief: as §1

[3] = molecular target: Neu5Ac(a2-3)Gal(b1-3)GlcNAc6S
Method in brief: as §1

[4] = molecular target: Neu5Ac(a2-3)Gal(b1-3)[Fuc(a1-4)]GlcNAc
Method in brief: as §1

[5] = molecular target: Neu5Ac(a2-3)Gal(b1-3)[Fuc(a1-4)]GlcNAc(b1-3)Gal(b1-3)[Fuc(a1-4)]GlcNAc
Method in brief: as §1

[6] = molecular target: Neu5Ac(a2-3)Gal(b1-3)[Fuc(a1-4)]GlcNAc(b1-3)Gal(b1-4)[Fuc(a1-3)]GlcNAc
Method in brief: as §1

[7] = molecular target: Neu5Ac(a2-3)Gal(b1-3)[Neu5Ac(a2-3)Gal(b1-4)]GlcNAc
Method in brief: as §1

[8] = molecular target: Neu5Ac(a2-3)Gal(b1-3)[Neu5Ac(a2-6)]GalNAc
Method in brief: as §1

[9] = molecular target: Neu5Ac(a2-3)Gal(b1-3)[Neu5Ac(a2-6)]GlcNAc(b1-3)[Fuc(a1-3)[Gal(b1-4)]GlcNAc(b1-6)]Gal(b1-4)Glc
Method in brief: as §1

[10] = molecular target: Neu5Ac(a2-3)Gal(b1-4)Glc
Method in brief: as §1

[11] = molecular target: Neu5Ac(a2-3)Gal(b1-4)GlcNAc
Method in brief: as §1

[12] = molecular target: Neu5Ac(a2-3)Gal(b1-4)GlcNAc(b1-2)Man
Method in brief: as §1

[13] = molecular target: Neu5Ac(a2-3)Gal(b1-4)GlcNAc(b1-2)Man(a1-3)[GlcNAc(b1-2)Man(b1-4)GlcNAc(b1-2)Man(a1-6)]Man(b1-4)GlcNAc(b1-4)GlcNAc
Method in brief: as §1

[14] = molecular target: Neu5Ac(a2-3)Gal(b1-4)GlcNAc(b1-2)Man(a1-3)[Neu5Ac(a2-3)Gal(b1-4)GlcNAc(b1-2)Man(a1-6)]Man(b1-4)GlcNAc(b1-4)[Fuc(a1-6)]GlcNAc
Method in brief: as §1

[15] = molecular target: Neu5Ac(a2-3)Gal(b1-4)GlcNAc(b1-2)Man(a1-3)[Neu5Ac(a2-6)Gal(b1-4)GlcNAc(b1-2)Man(a1-6)]Man(b1-4)GlcNAc(b1-4)GlcNAc
Method in brief: as §1

[16] = molecular target: Neu5Ac(a2-3)Gal(b1-4)GlcNAc(b1-2)[Neu5Ac(a2-3)Gal(b1-4)GlcNAc(b1-6)]Man(a1-6)[Neu5Ac(a2-3)Gal(b1-4)GlcNAc(b1-2)Man(a1-3)]Man(b1-4)GlcNAc(b1-4)GlcNAc
Method in brief: as §1

[17] = molecular target: Neu5Ac(a2-3)Gal(b1-4)GlcNAc(b1-3)Gal
Method in brief: as §1

[18] = molecular target: Neu5Ac(a2-3)Gal(b1-4)GlcNAc(b1-3)Gal(b1-3)GlcNAc
Method in brief: as §1

[19] = molecular target: Neu5Ac(a2-3)Gal(b1-4)GlcNAc(b1-3)Gal(b1-4)GlcNAc
Method in brief: as §1

[20] = molecular target: Neu5Ac(a2-3)Gal(b1-4)GlcNAc(b1-3)Gal(b1-4)GlcNAc(b1-3)Gal(b1-4)GlcNAc
Method in brief: as §1

[21] = molecular target: Neu5Ac(a2-3)Gal(b1-4)GlcNAc(b1-3)Gal(b1-4)[Fuc(a1-3)]GlcNAc
Method in brief: as §1

[22] = molecular target: Neu5Ac(a2-3)Gal(b1-4)GlcNAc(b1-3)GalNAc
Method in brief: as §1

[23] = molecular target: Neu5Ac(a2-3)Gal(b1-4)GlcNAc(b1-3)[Neu5Ac(a2-3)Gal(b1-4)GlcNAc(b1-6)]GalNAc
Method in brief: as §1

[24] = molecular target: Neu5Ac(a2-3)Gal(b1-4)GlcNAc(b1-6)GalNAc
Method in brief: as §1

[25] = molecular target: Neu5Ac(a2-3)Gal(b1-4)GlcNAc(b1-6)[Gal(b1-3)]GalNAc
Method in brief: as §1

[26] = molecular target: Neu5Ac(a2-3)Gal(b1-4)GlcNAc(b1-6)[Neu5Ac(a2-3)Gal(b1-3)]GalNAc
Method in brief: as §1

[27] = molecular target: Neu5Ac(a2-3)Gal(b1-4)GlcNAc6S
Method in brief: as §1

[28] = molecular target: Neu5Ac(a2-3)Gal(b1-4)[Fuc(a1-3)]GlcNAc
Method in brief: as §1

[29] = molecular target: Neu5Ac(a2-3)Gal(b1-4)[Fuc(a1-3)]GlcNAc(b1-3)Gal
Method in brief: as §1

[30] = molecular target: Neu5Ac(a2-3)Gal(b1-4)[Fuc(a1-3)]GlcNAc(b1-3)Gal(b1-4)GlcNAc
Method in brief: as §1

[31] = molecular target: Neu5Ac(a2-3)Gal(b1-4)[Fuc(a1-3)]GlcNAc(b1-3)Gal(b1-4)[Fuc(a1-3)]GlcNAc(b1-3)Gal(b1-4)[Fuc(a1-3)]GlcNAc
Method in brief: as §1

[32] = molecular target: Neu5Ac(a2-3)Gal(b1-4)[Fuc(a1-3)]GlcNAc(b1-3)GalNAc
Method in brief: as §1

[33] = molecular target: Neu5Ac(a2-3)Gal(b1-4)[Fuc(a1-3)]GlcNAc(b1-6)[Gal(b1-3)]GalNAc
Method in brief: as §1

[34] = molecular target: Neu5Ac(a2-3)Gal(b1-4)[Fuc(a1-3)]GlcNAc(b1-6)[Neu5Ac(a2-3)Gal(b1-3)]GalNAc
Method in brief: as §1

[35] = molecular target: Neu5Ac(a2-3)Gal(b1-4)[Fuc(a1-3)]GlcNAc6S
Method in brief: as §1

[36] = molecular target: Neu5Ac(a2-3)Gal6S(b1-4)GlcNAc
Method in brief: as §1

[37] = molecular target: Neu5Ac(a2-3)Gal6S(b1-4)[Fuc(a1-3)]GlcNAc
Method in brief: as §1

[38] = molecular target: Neu5Ac(a2-3)GalNAc
Method in brief: as §1

[39] = molecular target: Neu5Ac(a2-3)GalNAc(b1-4)GlcNAc
Method in brief: as §1

[40] = molecular target: Neu5Ac(a2-3)[GalNAc(b1-4)]Gal(b1-4)Glc
Method in brief: as §1

[41] = molecular target: Neu5Ac(a2-3)[GalNAc(b1-4)]Gal(b1-4)GlcNAc
Method in brief: as §1

[42] = molecular target: Neu5Ac(a2-3)[GalNAc(b1-4)]Gal(b1-4)GlcNAc(b1-3)GalNAc
Method in brief: as §1

[43] = molecular target: Neu5Ac(a2-3)[Neu5Ac(a2-6)]GalNAc
Method in brief: as §1

[44] = molecular target: Neu5Ac(a2-6)Gal
Method in brief: as §1

[45] = molecular target: Neu5Ac(a2-6)Gal(b1-3)GlcNAc(b1-3)[Gal(b1-4)GlcNAc(b1-6)]Gal(b1-4)Glc
Method in brief: as §1

[46] = molecular target: Neu5Ac(a2-6)Gal(b1-4)Glc
Method in brief: as §1

[47] = molecular target: Neu5Ac(a2-6)Gal(b1-4)GlcNAc
Method in brief: as §1

B1: Calsepa (Calystegia sepium), P93114 (protein)
chain: MAVPMDTISGPWGNNGGNFWSFRPVNKINQIVISYGGGGNNPIALTFSSTKADGSKDTITVGGGGPDSITGTEMVNIGTDEYLTGISGTFGIYLDNNVLRSITFTTNLKAHGPYGQKVGTPFSSANVVGNEIVGFLGRSGYYVDAIGTYNRHK
[1]
  glycan array binding signal (z-score): -0.266
[2]
  glycan array binding signal (z-score): -0.271
[3]
  glycan array binding signal (z-score): -0.247
[4]
  glycan array binding signal (z-score): -0.247
[5]
  glycan array binding signal (z-score): -0.242
[6]
  glycan array binding signal (z-score): -0.236
[7]
  glycan array binding signal (z-score): -0.251
[8]
  glycan array binding signal (z-score): -0.237
[9]
  glycan array binding signal (z-score): -0.272
[10]
  glycan array binding signal (z-score): -0.247
[11]
  glycan array binding signal (z-score): -0.248
[12]
  glycan array binding signal (z-score): -0.255
[13]
  glycan array binding signal (z-score): -0.13
[14]
  glycan array binding signal (z-score): -0.267
[15]
  glycan array binding signal (z-score): -0.087
[16]
  glycan array binding signal (z-score): -0.055
[17]
  glycan array binding signal (z-score): -0.272
[18]
  glycan array binding signal (z-score): -0.247
[19]
  glycan array binding signal (z-score): -0.248
[20]
  glycan array binding signal (z-score): -0.25
[21]
  glycan array binding signal (z-score): -0.25
[22]
  glycan array binding signal (z-score): -0.249
[23]
  glycan array binding signal (z-score): -0.273
[24]
  glycan array binding signal (z-score): -0.272
[25]
  glycan array binding signal (z-score): -0.251
[26]
  glycan array binding signal (z-score): -0.252
[27]
  glycan array binding signal (z-score): -0.238
[28]
  glycan array binding signal (z-score): -0.248
[29]
  glycan array binding signal (z-score): -0.245
[30]
  glycan array binding signal (z-score): -0.236
[31]
  glycan array binding signal (z-score): -0.241
[32]
  glycan array binding signal (z-score): -0.251
[33]
  glycan array binding signal (z-score): -0.247
[34]
  glycan array binding signal (z-score): -0.188
[35]
  glycan array binding signal (z-score): -0.244
[36]
  glycan array binding signal (z-score): -0.255
[37]
  glycan array binding signal (z-score): -0.248
[38]
  glycan array binding signal (z-score): -0.253
[39]
  glycan array binding signal (z-score): -0.249
[40]
  glycan array binding signal (z-score): -0.253
[41]
  glycan array binding signal (z-score): -0.243
[42]
  glycan array binding signal (z-score): -0.272
[43]
  glycan array binding signal (z-score): -0.242
[44]
  glycan array binding signal (z-score): -0.241
[45]
  glycan array binding signal (z-score): -0.273
[46]
  glycan array binding signal (z-score): -0.249
[47]
  glycan array binding signal (z-score): -0.247
